Several values for one entry are separate records, joined by “and”; a condition that tells them apart may be missing. Equal entries are not always repeated.
Target: SARS-CoV-2 Spike on wild-type pseudotyped virus (PsV) (SARS-CoV-2)
Experiment: cell-based or functional assay

B1: 4A8 MB (other)
chain 1: EIVMTQSPLSSPVTLGQPASISCRSSQSLVHSDGNTYLSWLQQRPGQPPRLLIYKISNRFSGVPDRFSGSGAGTDFTLKISRVEAEDVGVYYCTQATQFPYTFGQGTKVDIKRTVAAPSVFIFPPSDEQLKSGTASVVCLLNNFYPREAKVQWKVDNALQSGNSQESVTEQDSKDSTYSLSSTLTLSKADYEKHKVYACEVTHQGLSSPVTKSFNRGECGGGGSGGGGSGGGGSGGGGSGGGGSGGGGSGGGGSGGGGSGGGGSGGGGSGGGGSGGGGSGGGGSGGGGSEVQLVESGAEVKKPGASVKVSCKVSGYTLTELSMHWVRQAPGKGLEWMGGFDPEDGETMYAQKFQGRVTMTEDTSTDTAYMELSSLRSEDTAVYYCATSTAVAGTPDLFDYYYGMDVWGQGTTVTVSSASTKGPSVFPLAPSSKSTSGGTAALGCLVKDYFPEPVTVSWNSGALTSGVHTFPAVLQSSGLYSLSSVVTVPSSSLGTQTYICNVNHKPSNTKVDKKVEPKSCGGGGSGGGGSGGGGSGGGGSGGGGSG[about 200 residues omitted]
chain 2: [human IgG1 Fc omitted]GGGGSGGGGSGGGGSGGGGSGGGGSGGGGSGGGGSGGGGSGGGGSGGGGSGGGGSGGGGSGGGGSGGGGS[human IgG1 Fc omitted]GGGGSGGGGSGGGGSGGGGSGGGGSGGSSQIRQNYSTDVEAAVNSLVNLYLQASYTYLSLGFYFDRDDVALEGVSHFFRELAEEKREGYERLLKMQNQRGGRALFQDIKKPAEDEW
chain 3: EIVMTQSPLSSPVTLGQPASISCRSSQSLVHSDGNTYLSWLQQRPGQPPRLLIYKISNRFSGVPDRFSGSGAGTDFTLKISRVEAEDVGVYYCTQATQFPYTFGQGTKVDIKRTVAAPSVFIFPPSDEQLKSGTASVVCLLNNFYPREAKVQWKVDNALQSGNSQESVTEQDSKDSTYSLSSTLTLSKADYEKHKVYACEVTHQGLSSPVTKSFNRGECGGGGSGGGGSGGGGSGGGGSGGGGSGGGGSGGGGSGGGGSGGGGSGGGGSGGGGSGGGGSGGGGSGGGGSEVQLVESGAEVKKPGASVKVSCKVSGYTLTELSMHWVRQAPGKGLEWMGGFDPEDGETMYAQKFQGRVTMTEDTSTDTAYMELSSLRSEDTAVYYCATSTAVAGTPDLFDYYYGMDVWGQGTTVTVSSASTKGPSVFPLAPSSKSTSGGTAALGCLVKDYFPEPVTVSWNSGALTSGVHTFPAVLQSSGLYSLSSVVTVPSSSLGTQTYICNVNHKPSNTKVDKKVEPKSCGGGGSGGGGSGGGGSGGGGSGGGGSGGGKTPDAMKAAMALEKKLNQALLDLHALGSARTDPHLCDFLETHFLDEEVKLIKKMGDHLTNLHRLGGPEAGLGEYLFERLTLRHD
notes: also called 4A8 Multabody
In the case of B1, the “Median IC50” value is reported as 0.052 µg/mL and 23 pM.

Source: patent US20250002564A1 (HOSPITAL FOR SICK CHILDREN, published 2025)
